The target of one experiment is T1, T7-DHX34 (wild-type) (human, UniProt Q14147 1-1143).
T1 construct: Human DHX34, wild type; also called T7-tagged DHX34; shRNA-resistant (R) wild-type T7-DHX34; source: HEK293T, transiently transfected, in lysate; also purified on T7 agarose beads
T1 sequence (looked up): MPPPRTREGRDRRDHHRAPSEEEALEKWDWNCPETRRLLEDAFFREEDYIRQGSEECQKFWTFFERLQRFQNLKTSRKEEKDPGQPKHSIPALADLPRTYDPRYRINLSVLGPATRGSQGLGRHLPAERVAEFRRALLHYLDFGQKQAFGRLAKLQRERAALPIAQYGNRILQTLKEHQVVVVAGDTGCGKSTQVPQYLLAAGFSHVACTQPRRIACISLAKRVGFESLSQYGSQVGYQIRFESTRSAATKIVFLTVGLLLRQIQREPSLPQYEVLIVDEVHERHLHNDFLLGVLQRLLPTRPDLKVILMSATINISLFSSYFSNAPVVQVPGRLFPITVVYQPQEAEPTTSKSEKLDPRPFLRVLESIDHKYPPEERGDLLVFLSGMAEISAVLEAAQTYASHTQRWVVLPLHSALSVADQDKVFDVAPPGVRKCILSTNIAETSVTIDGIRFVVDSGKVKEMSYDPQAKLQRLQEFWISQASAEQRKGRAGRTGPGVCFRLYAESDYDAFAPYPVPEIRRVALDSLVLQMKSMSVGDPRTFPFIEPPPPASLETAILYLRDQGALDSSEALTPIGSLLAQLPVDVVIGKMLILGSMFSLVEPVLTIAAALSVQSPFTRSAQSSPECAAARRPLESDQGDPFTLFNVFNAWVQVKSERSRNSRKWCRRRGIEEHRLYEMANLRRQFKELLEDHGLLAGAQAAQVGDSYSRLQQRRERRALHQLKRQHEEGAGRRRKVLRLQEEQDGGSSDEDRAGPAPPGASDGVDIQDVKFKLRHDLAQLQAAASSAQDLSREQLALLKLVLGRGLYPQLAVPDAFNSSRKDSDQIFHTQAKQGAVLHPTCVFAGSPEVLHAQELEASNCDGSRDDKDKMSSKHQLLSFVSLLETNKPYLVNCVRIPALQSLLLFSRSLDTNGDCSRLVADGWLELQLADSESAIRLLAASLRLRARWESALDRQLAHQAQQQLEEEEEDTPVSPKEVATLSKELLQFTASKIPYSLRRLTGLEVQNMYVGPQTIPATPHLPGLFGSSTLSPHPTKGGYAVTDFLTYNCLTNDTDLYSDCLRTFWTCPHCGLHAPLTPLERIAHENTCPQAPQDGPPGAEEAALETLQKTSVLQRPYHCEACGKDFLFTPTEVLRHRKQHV
In words: co-IP; IP of transiently transfected T7-DHX34 (wild-type or mutants) from HEK293T lysate, in the presence of RNase A (Figure 3B); endogenous partners by western blot. In general terms: Immunoblotting shows a protein as a band on a membrane.

By UniProt entry, the sequences of proteins in these tests, tags left out.
UniProt Q96Q15: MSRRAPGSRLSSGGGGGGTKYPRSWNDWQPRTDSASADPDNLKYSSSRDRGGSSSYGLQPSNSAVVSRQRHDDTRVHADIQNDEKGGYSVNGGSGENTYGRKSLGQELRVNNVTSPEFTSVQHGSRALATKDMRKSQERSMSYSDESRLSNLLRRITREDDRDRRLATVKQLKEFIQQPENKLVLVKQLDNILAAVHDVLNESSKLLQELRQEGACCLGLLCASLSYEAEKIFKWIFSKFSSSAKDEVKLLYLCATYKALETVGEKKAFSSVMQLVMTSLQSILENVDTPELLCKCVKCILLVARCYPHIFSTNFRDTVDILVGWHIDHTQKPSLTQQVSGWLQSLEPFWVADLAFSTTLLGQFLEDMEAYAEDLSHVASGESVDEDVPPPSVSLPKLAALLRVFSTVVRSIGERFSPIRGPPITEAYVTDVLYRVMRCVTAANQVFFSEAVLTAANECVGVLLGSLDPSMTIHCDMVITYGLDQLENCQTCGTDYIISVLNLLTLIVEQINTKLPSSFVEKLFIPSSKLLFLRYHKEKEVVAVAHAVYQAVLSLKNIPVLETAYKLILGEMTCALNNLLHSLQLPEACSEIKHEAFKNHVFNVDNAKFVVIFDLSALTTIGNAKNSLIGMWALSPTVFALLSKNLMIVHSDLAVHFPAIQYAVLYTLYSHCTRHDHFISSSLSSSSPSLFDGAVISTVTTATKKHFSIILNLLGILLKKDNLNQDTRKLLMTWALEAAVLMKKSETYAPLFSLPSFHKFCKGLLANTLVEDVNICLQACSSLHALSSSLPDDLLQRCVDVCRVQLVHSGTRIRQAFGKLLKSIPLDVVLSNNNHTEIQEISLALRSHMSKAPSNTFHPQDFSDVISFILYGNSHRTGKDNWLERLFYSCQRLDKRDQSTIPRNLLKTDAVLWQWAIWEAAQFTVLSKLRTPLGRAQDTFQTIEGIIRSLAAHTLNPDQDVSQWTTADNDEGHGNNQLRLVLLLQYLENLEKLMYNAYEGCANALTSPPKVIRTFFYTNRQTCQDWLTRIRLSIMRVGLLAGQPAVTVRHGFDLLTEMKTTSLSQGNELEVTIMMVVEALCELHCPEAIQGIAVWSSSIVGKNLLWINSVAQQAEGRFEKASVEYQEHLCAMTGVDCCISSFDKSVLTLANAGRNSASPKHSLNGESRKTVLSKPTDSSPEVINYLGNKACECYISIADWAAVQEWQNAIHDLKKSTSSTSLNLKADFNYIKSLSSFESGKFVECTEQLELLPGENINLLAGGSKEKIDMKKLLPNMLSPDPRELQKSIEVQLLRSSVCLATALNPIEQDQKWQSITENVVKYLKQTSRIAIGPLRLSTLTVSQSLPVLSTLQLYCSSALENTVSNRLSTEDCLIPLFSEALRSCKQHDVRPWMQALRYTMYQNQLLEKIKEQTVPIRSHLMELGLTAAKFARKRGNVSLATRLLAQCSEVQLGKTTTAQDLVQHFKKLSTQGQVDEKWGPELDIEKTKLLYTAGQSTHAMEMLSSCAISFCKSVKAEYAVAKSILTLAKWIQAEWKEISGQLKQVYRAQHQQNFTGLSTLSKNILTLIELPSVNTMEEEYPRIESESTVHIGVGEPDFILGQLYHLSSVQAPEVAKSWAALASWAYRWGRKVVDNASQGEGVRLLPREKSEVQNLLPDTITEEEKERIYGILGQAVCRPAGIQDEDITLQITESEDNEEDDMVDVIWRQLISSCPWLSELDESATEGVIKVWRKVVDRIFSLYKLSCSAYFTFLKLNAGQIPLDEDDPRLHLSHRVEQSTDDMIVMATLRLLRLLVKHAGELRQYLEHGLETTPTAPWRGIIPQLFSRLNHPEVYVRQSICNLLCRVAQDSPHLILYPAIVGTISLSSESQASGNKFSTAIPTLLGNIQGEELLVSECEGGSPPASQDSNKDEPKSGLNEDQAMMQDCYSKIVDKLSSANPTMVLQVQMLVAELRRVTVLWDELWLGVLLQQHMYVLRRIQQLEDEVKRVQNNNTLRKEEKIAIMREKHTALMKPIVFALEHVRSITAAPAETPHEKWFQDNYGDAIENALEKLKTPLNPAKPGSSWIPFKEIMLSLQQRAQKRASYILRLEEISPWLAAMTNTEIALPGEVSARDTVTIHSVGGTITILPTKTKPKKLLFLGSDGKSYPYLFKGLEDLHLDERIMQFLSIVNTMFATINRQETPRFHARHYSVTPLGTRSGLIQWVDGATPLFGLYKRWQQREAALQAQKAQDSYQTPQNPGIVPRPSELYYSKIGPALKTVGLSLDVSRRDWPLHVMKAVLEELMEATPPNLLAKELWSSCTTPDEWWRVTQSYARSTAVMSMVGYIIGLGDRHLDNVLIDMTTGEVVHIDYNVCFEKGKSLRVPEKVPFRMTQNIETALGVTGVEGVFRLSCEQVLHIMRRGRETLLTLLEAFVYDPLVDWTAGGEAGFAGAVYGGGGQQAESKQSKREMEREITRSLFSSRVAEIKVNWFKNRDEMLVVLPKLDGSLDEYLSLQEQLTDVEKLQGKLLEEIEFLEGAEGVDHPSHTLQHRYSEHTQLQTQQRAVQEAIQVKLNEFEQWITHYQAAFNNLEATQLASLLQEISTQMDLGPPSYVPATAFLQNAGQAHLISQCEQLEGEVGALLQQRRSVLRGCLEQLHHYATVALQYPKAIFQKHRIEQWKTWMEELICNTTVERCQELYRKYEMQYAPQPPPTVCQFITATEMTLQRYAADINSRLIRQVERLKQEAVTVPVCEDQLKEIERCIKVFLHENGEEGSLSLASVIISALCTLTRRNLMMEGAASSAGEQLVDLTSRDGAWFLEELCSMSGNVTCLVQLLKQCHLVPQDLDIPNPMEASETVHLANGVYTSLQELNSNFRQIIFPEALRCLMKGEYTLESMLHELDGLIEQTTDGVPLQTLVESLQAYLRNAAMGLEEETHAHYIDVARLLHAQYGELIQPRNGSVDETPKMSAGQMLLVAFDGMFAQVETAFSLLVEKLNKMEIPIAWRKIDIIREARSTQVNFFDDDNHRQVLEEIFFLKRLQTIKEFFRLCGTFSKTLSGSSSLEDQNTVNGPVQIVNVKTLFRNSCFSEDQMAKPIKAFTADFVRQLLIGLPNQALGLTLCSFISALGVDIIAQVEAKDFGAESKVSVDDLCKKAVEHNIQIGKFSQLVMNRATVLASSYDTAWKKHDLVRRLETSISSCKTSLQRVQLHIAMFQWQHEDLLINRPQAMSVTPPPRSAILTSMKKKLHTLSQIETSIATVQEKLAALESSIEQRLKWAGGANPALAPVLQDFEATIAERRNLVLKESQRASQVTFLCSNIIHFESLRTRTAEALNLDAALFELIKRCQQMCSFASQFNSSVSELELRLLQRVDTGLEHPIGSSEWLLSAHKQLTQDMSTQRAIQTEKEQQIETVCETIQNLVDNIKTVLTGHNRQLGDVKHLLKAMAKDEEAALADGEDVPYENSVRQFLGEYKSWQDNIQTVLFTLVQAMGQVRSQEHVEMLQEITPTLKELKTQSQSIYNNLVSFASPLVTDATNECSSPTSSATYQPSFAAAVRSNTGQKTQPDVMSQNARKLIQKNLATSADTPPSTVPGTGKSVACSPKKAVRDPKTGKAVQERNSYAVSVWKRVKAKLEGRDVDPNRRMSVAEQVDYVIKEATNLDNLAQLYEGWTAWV

The next experiment has as its target T2, T7-DHX34 D279A (human) (UniProt Q14147).
T2 sequence: T1 sequence (looked up) with D279A
The experiment is described as above.

Residue numbers refer to the chain shown, from its start. These are yes or no findings as the source states them, for the method shown. In cells and extracts the contact can be indirect. Some results given as binding are weak or reduced against the parent protein; the word gives no strength.

On to SMG1 (from UniProt Q96Q15 1-3661), for which the binding entry in the experiment with T7-DHX34 (wild-type) and with T7-DHX34 D279A (human) was “binds” in each case.

Source of the values: paper PMC4534575, “The RNA Helicase DHX34 Activates NMD by Promoting a Transition from the Surveillance to the Decay-Inducing Complex” (Cell Reports, 2014).
